PubChem BioAssay AID1794842 (National Center for Advancing Translational Sciences (NCATS), 2023)
Screen size: about 2,800 compounds; fewer than 10 were called active. Calls follow the shape of the dose curve; as a rule, active = well fitted curve in the direction sought with a large enough effect; inconclusive = small, poorly fitted or top-dose-only effect, or another doubt; inactive = no such curve, though single readings can be large or run the other way. This is one part of the list.

The compounds below were run against Metallo-beta-lactamase type 2 (Klebsiella pneumoniae) (UniProt C7C422) (assay: qHTS to identify inhibitors of the New Delhi Metallo-beta-lactamase (NDM): Meropenem screen against the machine-based learning selections.). Conditions: Purified NDM-1, meropenem hydrolysis, absorbance 300 nm; at 38.4 µM (top of the series) unless noted.
UniProt C7C422, sequence (C7C422 whole entry, looked up): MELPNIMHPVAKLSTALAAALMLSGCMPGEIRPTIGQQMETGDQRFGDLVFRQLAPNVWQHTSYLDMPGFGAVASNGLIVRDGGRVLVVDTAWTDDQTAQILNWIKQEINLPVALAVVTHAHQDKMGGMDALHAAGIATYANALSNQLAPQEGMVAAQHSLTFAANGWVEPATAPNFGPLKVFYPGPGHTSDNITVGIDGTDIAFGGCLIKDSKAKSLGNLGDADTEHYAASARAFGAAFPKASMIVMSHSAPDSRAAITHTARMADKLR
Outline: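 Hydrolysis by 2 nM NDM-1 was followed by absorbance after >30 min compound preincubation in HEPES pH 7.0 buffer with 1 uM Zn2SO4. For nitrocefin (16.7 uM, 15 min, 485 nm) and meropenem (50 uM, 30 min, 300 nm), each substrate ran on separate plates.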
Also: % of control where 0% means no effect.

Activity change, negative = inhibition, inactive:
O=C1N(Cc2ccccn2)C[C@H]2CN(Cc3cccc(OC(F)(F)F)c3)CCN12 0.412% [at 57.5 µM]
CNC(=O)c1cccc(-c2cnc(Nc3cccnc3)c3c2CCO3)c1 0.548% [at 57.5 µM]
CN1C[C@@H](F)[C@@H](OCc2nc3ccc(C(F)(F)F)cc3[nH]2)C1 2.24% [at 57.5 µM]
C[C@@H](c1ccccc1)N1C(=O)[C@@H]2CN(C(=O)c3ccco3)CCN2C1=O 3.75% [at 57.5 µM]
CC(C)c1nc2c(c(-c3ccc(O)cc3)n1)CN(C(=O)N(C)C)CC2 3.85%
COc1ncccc1-c1cnc2[nH]cc(CC(=O)Nc3cccnc3)c2c1 0.35% [at 57.5 µM]
O=C(CCC[C@H]1NC[C@@H]2CC1CN(Cc1ccccc1)C2)N1CCOCC1 56.3%
C[C@H](O)c1c(-c2ccc(Cl)cc2)noc1C(=O)N(C)C 0.62% [at 57.5 µM]
COc1ccc(C(=O)N2CC[C@@H](CC(=O)O)[C@@H](CCN3CCCCC3)C2)cc1 3.07% [at 57.5 µM]
COc1cccc(-c2ccccc2NC(=O)C2CCN(Cc3cc(F)ccc3F)CC2)c1 0.222%
Cc1nc2c(c(=O)[nH]1)CCN(C(=O)C1(C)CCc3c(C)c(O)c(C)c(C)c3O1)C2 (stereo not drawn) -0.427%
O=C(NC[C@H]1OC[C@@H](NC2CCCCC2)[C@@H]1O)C1CCCC1 0.318% [at 57.5 µM]
CN(C)c1ccc(CC(=O)N2CC[C@@](C)(O)[C@@H](O)C2)cc1 2.59%
Nc1nc(C2CC(NC(=O)c3csc4c3CCCC4)C2)cc(=O)[nH]1 (stereo not drawn) 0.72%
CN(Cc1ccccc1)Cc1cc(C[C@H]2CNCC[C@H]2CC(=O)NCc2cccs2)no1 -1.69%
COc1ccc(CN2C(=O)O[C@@H]3CN(C4CCCCC4)C[C@@H]32)cc1OC 2.5%
CC1(C)C[C@H](NC(=O)c2ccccc2)[C@@]2(CCC(=O)NCCN3CCOCC3)CC[C@](C)(O)C[C@@H]12 0.402%
CCC(C)NC(=O)CCN(CC)C(=O)c1cc(C)oc1C (stereo not drawn) -3.84%
COc1cc(=O)n2c(c1C(=O)Nc1ccc(F)cc1F)CCCC2 -2.11%
CC(NCc1cn(CCC(N)=O)c2ccccc12)c1ccccc1-n1cccn1 (stereo not drawn) -0.612%
Cn1cc(C(=O)N2CCCC(c3nnnn3C)C2)cn1 (stereo not drawn) 1.2%
CO[C@@H]1CO[C@H]2[C@@H]1OC[C@@H]2NS(C)(=O)=O 3.78% [at 76.7 µM]
COc1ccc(Cl)cc1-c1ccc2c(c1)C(=O)N1CC[C@H](NC(=O)C3CCCC3)[C@H]1C(=O)N2 1.26%
O=c1c2nc(-c3ccc(O)c(F)c3)ccc2ncn1-c1ccccc1 17.4% [at 57.5 µM]
O=C(Cc1c[nH]c2ncc(-c3cccnc3)cc12)NCc1cccc(F)c1 2.57% [at 57.5 µM]
c1ccc(Nc2cc3c(cn2)CN(Cc2ccccn2)CCN3)cc1 29.1% [at 57.5 µM]
CC(C)NC(=O)c1ccnc(-c2nnc3ccc(Nc4ccccc4)nn23)c1 1.69% [at 57.5 µM]
CC(CN1CCCC1)CN(C)c1nc(CCN)nc2ccccc12 (stereo not drawn) 18.8%
COc1ccc(CNC[C@H]2Cn3ccnc3CO2)cn1 0.89% [at 76.7 µM]
COc1ccc(C(=O)NCc2nnc3ccc(-c4ccc(C)c(C)c4)nn23)cc1 5.79%
O=C(Cc1cccc(Cl)c1)N1CCCC(c2nn(-c3ccccc3)c(=O)[nH]2)C1 (stereo not drawn) -0.0731%
CCn1cc(S(=O)(=O)N2CCCCC2c2nc(-c3ccncc3)n[nH]2)cn1 (stereo not drawn) 1.17%
COCc1nc(C2CC(N)C2)cc(N2CCC(Cn3cccn3)CC2)n1 (stereo not drawn) 64.5%
CN(C)c1ccc(-c2nnc([C@H]3CCN(Cc4ccco4)C3)o2)cc1 13.4% [at 57.5 µM]
Oc1ccccc1CN1CCC(O)(c2csc(CN3CCOCC3)n2)CC1 0.483% [at 57.5 µM]
COCCNC(=O)c1ccc2c(c1)N(C)C(CC(=O)N1CCC(C)CC1)CO2 (stereo not drawn) 0.152%
CN(C)C[C@H]1O[C@@H](CO)[C@@H](O)[C@H]1N1CCN(c2ccc(F)cc2)CC1 43.7%
COC(=O)c1ccc2nc(C[C@@H]3C[C@@H](C(C)C)[C@H](CNC(=O)CC4(CC(=O)O)CCCC4)C=C3C)[nH]c2c1 49%
O=S(=O)(NC[C@H]1O[C@@H](CO)[C@@H](O)[C@H]1N1CCN(c2ccc(F)cc2)CC1)c1ccc(F)cc1 54.3%
CCN(CC)Cc1nc(C2(O)CCN(C(=O)COc3ccccc3)CC2)cs1 -1.77% [at 57.5 µM]
Cc1nn(-c2ccc(C(F)(F)F)cc2)c(C)c1[C@@H]1C=C[C@@H](NC(=O)C2CCCCC2)C1 1.38% [at 57.5 µM]
Cc1nc([C@@H]2CN(C3CCN(CCc4ccccc4)CC3)C[C@H]2C(N)=O)n[nH]1 1.53%
Clc1ccccc1C1(c2ccnc(NCCn3cccn3)n2)CCNCC1 48.6%
COC(=O)[C@@H](C)NC(=O)[C@H]1CN(C(=O)c2cccnc2)CCN1S(C)(=O)=O 0.0432% [at 57.5 µM]
COc1ccc(OC)c(CN2CCC3(CC2)Nc2ccccc2NC3=O)c1 -3.33%
CCCc1ncncc1C(=O)N1CCCC2(CC1)CNC(=O)O2 (stereo not drawn) 1.69%
COC(=O)[C@@H]1Cc2ncn(Cc3ccccc3)c2CN1S(=O)(=O)c1cccs1 1.28% [at 57.5 µM]
CC1=C[C@@H](CC#N)[C@H](C(C)C)C[C@H]1CC(=O)NC1CCCCC1 1.25% [at 57.5 µM]
O=C(c1cccc2[nH]ccc12)N1CCC([C@@H]2CNC[C@H]2CO)CC1 16.5%
O=C1OC[C@@H]2CCN(Cc3ccc(Cl)cc3)Cc3ccc(F)cc3N12 0.972% [at 57.5 µM]
CCn1cnnc1CC1CCN(C(=O)NC)C1 (stereo not drawn) -0.829%
O=C(c1ccc(C2CCCN2)s1)N1CCc2nc[nH]c2C1 (stereo not drawn) 41.3%
COc1ccc(-c2nnc3n2CCN(C(=O)c2ccc(C(F)(F)F)cc2)C3)cc1 -1.65%
CC1(C)[C@H](Cc2cc(CN3CCN(c4ccccc4)CC3)on2)C[C@@H]1NC(=O)Nc1ccc(F)cc1 -0.163%
O=C(C1CCCC1)N1CC2CC(C1)[C@H]1CCCC(=O)N1C2 (stereo partly drawn) 18.4%
Cn1ccc2c(C(=O)NCCC(N)=O)nc(-c3cccc(CO)c3)cc21 9.01% [at 57.5 µM]
COc1ccc(CN2CCOC[C@H]2c2ncc(-c3cccnc3)[nH]2)cc1 6.05% [at 57.5 µM]
CN1[C@@H](CCC(=O)NCc2cccnc2)CNC(=O)[C@@H]2[C@H]1CCN2Cc1nc2ccccc2n1C 14.4%
O=C(c1cnc2c(O)cccn2c1=O)N1CCC2(CC1)OCCCC2O (stereo not drawn) 37.7%
O=C(CCc1cc(=O)[nH]o1)N[C@H](c1ccccn1)C1CC(O)C1 (stereo partly drawn) -1.48%
Cc1ccccc1NC(=O)Nc1ccnn1C1CCN(C(=O)[C@@H](N)CO)CC1 31.8%
CC[C@H]1CN(C(=O)c2ccc(F)cc2)CC[C@H]1CC(=O)NC1CCCC1 -0.765% [at 57.5 µM]
Cc1nc2c(NC3CCN(C(=O)c4cnccn4)CC3)cccn2n1 6.5%
CCOCCN1C(=O)COC[C@@H]1[C@H](O)c1ccc(NC(=O)c2ccccc2)cc1 1.7% [at 57.5 µM]
C[C@@H]1C(=O)O[C@H]2[C@H]1CC[C@@]1(C)Cc3sc(NS(=O)(=O)c4ccc5c(c4)CN(C(=O)C(F)(F)F)CC5)nc3[C@@H](C)[C@H]21 -3.52%
O=C(c1cc2sccc2[nH]1)N1CCCn2nc(C(O)CO)cc2C1 (stereo not drawn) 16.9%
O=C(O)C[C@@H]1CCN(C(=O)C2CCC2)C[C@@H]1CCN1CCC(n2c(=O)[nH]c3ccccc32)CC1 1.43%
COC(=O)N1CCn2c(nnc2-c2ccc(OC)cc2)C1 0.782% [at 57.5 µM]
COc1cc(=O)n2c(c1C(=O)NC1CCCCCC1)CCCC2 -3.47%
COc1ccccc1CN1Cc2[nH]cnc2C[C@H]1c1nc(-c2cccc(C)c2)no1 66.5% [at 57.5 µM]
O=C(O)c1cc(-c2ccncc2)cc(S(=O)(=O)N2CCCCCC2)c1 1.09%
CN(C)C1CCN(c2nc(-c3ccncc3)nc3c2CNC3)C1 (stereo not drawn) 15.6%
O=C1Cc2c(-c3ccc4ccccc4c3)n[nH]c2CN1CCc1ccncc1 7.56% [at 57.5 µM]
COc1ccc(-c2ccc3c(c2)C(=O)N2CC[C@H](NC(=O)c4cccs4)[C@H]2C(=O)N3)c(OC)c1 7.27%
Cc1sc2ccn(C)c(=O)c2c1C(=O)NCc1ccc(OC(C)C)cc1 3.58%
CC(=O)N1CC[C@H](c2nc3cc(C)ccc3o2)C1 -0.0122% [at 76.7 µM]
O=C(Cc1c[nH]c2ncc(-c3ccccc3)cc12)NCC1CCOCC1 0.256% [at 57.5 µM]
O=C(c1ccc2ncccc2c1)N1CCC2(CC1)Nc1ccccc1NC2=O -2.05%
